Screen size: about 340,000 compounds; about 6,900 (2%) were called active. No stated cut-off is given here; in the data, active means inhibition above about 30%; inactive means below that, where a call was filed. This is a selection; strong and weak results do not stand in their true shares. The source gives no active or inactive call for entries shown without one.
The compounds below were run against D(2) dopamine receptor (Homo sapiens) (UniProt P14416) (assay: HTS Assay for Allosteric Antagonists of the Human D2 Dopamine Receptor: Primary Screen for Antagonists). Conditions: HEK293 TREx D2 cells, calcium flux, dopamine EC80; at 10 µM; stronger effect = higher value.
Chain of UniProt P14416 (P14416 whole entry, looked up): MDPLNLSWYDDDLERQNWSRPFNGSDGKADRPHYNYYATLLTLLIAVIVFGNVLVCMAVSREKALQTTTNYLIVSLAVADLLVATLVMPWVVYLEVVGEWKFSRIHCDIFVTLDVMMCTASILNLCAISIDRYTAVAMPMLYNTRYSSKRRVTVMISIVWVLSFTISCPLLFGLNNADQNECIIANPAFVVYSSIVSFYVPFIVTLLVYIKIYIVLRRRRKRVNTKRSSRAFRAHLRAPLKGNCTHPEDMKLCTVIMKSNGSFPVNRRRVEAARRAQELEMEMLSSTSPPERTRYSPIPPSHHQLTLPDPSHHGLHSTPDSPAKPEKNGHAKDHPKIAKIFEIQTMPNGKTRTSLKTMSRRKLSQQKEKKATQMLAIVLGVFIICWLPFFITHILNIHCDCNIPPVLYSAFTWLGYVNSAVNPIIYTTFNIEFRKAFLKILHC
In short: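 In this primary screen, negative modulation is detected by tracking calcium flux after an EC80 dopamine challenge in inducible HEK293 T-REx D2 cells preexposed to test compound for 180 s.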
Work on `COCCn1c(CNC(=O)c2cc(OC)c(OC)c(OC)c2)nc2cccnc21` yielded an inhibition of -8.48%. `CCN(c1cccc(C(F)(F)F)c1)S(=O)(=O)c1ccc2c(c1)CCN2C(C)=O` was tested, and the inhibition was active: 31%. `CCN(CC)C(=O)C1CCCN(c2ncnc3c2nc2n3CCCCC2)C1` (stereo unspecified) showed an inhibition of 0.575%. With `COc1ccc(CCNC(=O)c2cc3c(=O)[nH]c4ccc(C)cc4c3s2)cc1OC` the inhibition was 9.98%. `CS(=O)(=O)N1CCC(N2CCN(Cc3ccc(F)cc3)C(=O)C2=O)CC1` was tested, and the inhibition was 10.3%. `CSc1ccc(CCNC(=O)c2ccc3c(c2)c(C)c(C)n3Cc2ccc(F)cc2)cc1` was tested, and the inhibition was 9.7%. Compound `CCn1c(CN2CCN(C)CC2)nc2cc(NC(=O)c3cc(OC)c(OC)c(OC)c3)ccc21` has an inhibition of 13.3%. In the case of `Cc1cc(NC(=O)CSc2ncc(C(=O)Nc3ccccc3)c(=O)n2C)no1`, the inhibition is reported as 0.141%. Compound `COc1ccccc1CNC(=O)C(Cc1ccccc1)NS(=O)(=O)c1ccc2c(c1)CCN2C(C)=O` (stereo unspecified) has an inhibition of -14.3%. With `Cc1ccccc1NC(=O)c1ccc(CNS(=O)(=O)c2ccc3c(c2)C(C)(C)C(=O)N3C)cc1` the inhibition was -7.68%. With `O=C(NCc1ccccn1)c1nn(-c2ccccc2Cl)nc1CO` the inhibition was 1.5%. With `CSc1ncc(C(=O)Nc2cccc(Cl)c2C)c(-c2ccccc2)n1` the inhibition was -1.61%. `CCN(CC)C(=O)C1=C(C)Nc2nc3ccccc3n2C1c1ccc(Cl)cc1` (stereo unspecified) was tested, and the inhibition was 18.2%. With `Cc1ccc(Cl)cc1N(C)C(=O)c1cc2ccc3cccnc3c2[nH]1` the inhibition was 5.45%. With `CCNC(=O)CC1C(=O)N(c2ccc(F)cc2)C(=O)N1Cc1ccc(C)cc1` (stereo unspecified) the inhibition was -1.17%. With `CCCCOc1ccc(C(=O)NCCc2csc3nc(-c4ccccc4F)nn23)cc1` the inhibition was 20.9%. With `O=C(Nc1cccc(Br)c1)N1CCC(CN2CCCCCC2)CC1` the inhibition was -4.35%. In the case of `COc1cccc(CNC(=O)CN(c2ccc(C(C)C)cc2)S(=O)(=O)c2c(C)noc2C)c1`, the inhibition is reported as 0.442%. Compound `CCOC(=O)c1sc(NC(=O)c2cc3nc(-c4ccccc4)cc(C(F)(F)F)n3n2)c(C(=O)OCC)c1C` has an inhibition of -4.7%. For `CCOC(=O)c1cc(-c2ccccc2)n(-c2cccc(C(=O)Nc3cc(OC)cc(OC)c3)c2)c1C`, the inhibition was 8.47%. `Cc1cc(C)cc(Oc2c(C(F)(F)F)oc3cc(OCC(=O)NC4CCCCC4)ccc3c2=O)c1` was tested, and the inhibition was 3.18%. Compound `CCOc1ccc(NC(=O)c2oc3ccccc3c2NC(=O)c2cc(C)cc(C)c2)cc1` has an inhibition of -3.04%. Compound `COc1ccc(CCNC(=O)Cn2ncc3c(=O)oc4ccccc4c32)c(OC)c1` has an inhibition of 5.55%. Work on `CCOc1ccc(NC(=O)c2cnc(Nc3ccccc3OC)c3ccccc23)cc1` yielded an inhibition of -0.722%. `CCc1ccc2oc(-c3cc(NC(=O)c4cccnc4)cc(C)c3O)nc2c1` showed an inhibition of -17.1%. `N#CC(C#N)=C1C=C2C=C(N3CCCCC3)CCC2CC1` (stereo unspecified) was tested, and the inhibition was active: 86.8%.

From PubChem BioAssay AID485344 (National Center for Advancing Translational Sciences (NCATS), 2010)
Further: 0% is about no effect.
